# Measured values published in PubChem BioAssay AID2451 (National Center for Advancing Translational Sciences (NCATS), 2010).
# About 2,100 (0.72%) of roughly 290,000 compounds were called active. This list was built around the results that the source calls inconclusive (neither active nor inactive); the mix of calls is not that of the screen. The call rests on the fitted dose curve; in most records, active means well fitted inhibition curve with a large enough effect; inconclusive means small, poorly fitted or top-dose-only effect, or effect the other way; inactive means flat fitted curve, though single readings scatter. Potencies beside an inconclusive call are fits to weak or partial responses and may not hold up.
# Target: Fructose-bisphosphate aldolase (Giardia intestinalis (strain ATCC 50803 / WB clone C6)) (UniProt A8B2U2)
# Test: qHTS Assay for Inhibitors of Fructose-1,6-bisphosphate Aldolase from Giardia Lamblia; further: nearly all actives have a fitted effect of over 55% in size
# Conditions: purified Giardia FBPA; activity, negative = inhibition: at 59.6 µM (top of the series) unless noted
# Summary of the method: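 40 nM FBPA preincubated 10 min at RT with compound (up to 57.5 uM final), then substrate plus GAPDH/TPI/NAD/arsenate coupling and diaphorase/resazurin added. Fluorescence read after 20 min at RT, 525/598 nm.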
# On the % scale 0 is the no-effect control and ±100 the full control effect; potency means the concentration at half of the fitted maximal effect; tags describe the fitted curve by direction and shape.
# UniProt A8B2U2, sequence (A8B2U2 whole entry, looked up): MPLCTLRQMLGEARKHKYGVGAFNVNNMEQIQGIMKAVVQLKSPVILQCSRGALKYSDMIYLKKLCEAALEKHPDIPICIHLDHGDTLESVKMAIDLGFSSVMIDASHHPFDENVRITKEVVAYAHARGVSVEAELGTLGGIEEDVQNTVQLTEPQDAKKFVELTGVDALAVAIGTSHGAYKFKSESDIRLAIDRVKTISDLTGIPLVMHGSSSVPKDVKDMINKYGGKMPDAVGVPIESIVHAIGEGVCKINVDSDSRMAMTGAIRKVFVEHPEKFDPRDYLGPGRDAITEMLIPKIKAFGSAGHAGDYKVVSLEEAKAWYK
Compound,Potency,"activity, negative = inhibition"
COc1ccc(C(=O)/C=C2\Sc3ccccc3N2C)cc1,"inconclusive: 17.7 µM [inhibitor, partial curve]",
Cc1ccc(S(=O)(=O)NC2=C(N3CCN(c4ccccc4F)CC3)C(=O)c3ccccc3C2=O)cc1,"inconclusive: 17.7 µM [inhibitor, partial curve]",
c1ccc2c(-c3cn4ccccc4n3)c[nH]c2c1,inactive,
COc1cc(C2CC(=O)Oc3ccc(O)cc32)cc(OC)c1OC (stereo not given),"inconclusive: 39.7 µM [inhibitor, single point]",
Oc1ccc2ccccc2c1C=Nc1ccc(N2CCOCC2)cc1,inactive,
O=C(CSc1ncccn1)NC(=O)Nc1ccc2c(c1)OCCO2,inactive,
CN(C(=S)NC(=O)c1ccc(Cl)cc1)C1CCCCC1,inactive,
CC(C)(C)c1cc(Cl)ccc1OCCn1ccnc1,active: 17.8 µM,
Cc1onc(-c2ccccc2)c1C(=O)NNC(=S)NC(=O)c1ccc2c(c1)OCO2,"inconclusive: 19.9 µM [activator, single point]",
Cc1ccc(O)c(N=Cc2ccc(C)s2)c1,"inconclusive: 15.8 µM [inhibitor, partial curve]",
CC(C)(C)NC(=O)C(c1ccc(O)cc1)N(C(=O)Cn1nnc(-c2ccc(F)cc2)n1)c1ccccc1F (stereo not given),inactive,
Cc1ccc(C(=O)Cc2nnc(C)s2)cc1,"inconclusive: 17.7 µM [inhibitor, partial curve]",
CCN1CCN(C(=S)c2ccc(O)cc2)CC1,active: 8.89 µM,
CC(=O)C1=C(c2ccc(Br)cc2)C(=O)c2ccccc2C1=O,active: 0.281 µM,
CCOC(=O)N1CCN(C(=O)C2CCN(Cc3ccc(O)c(OCC)c3)CC2)CC1,"inconclusive: 14.1 µM [inhibitor, partial curve]",
Cc1cccc(NC(=O)C(=O)NNC(=O)c2ccc(C(C)(C)C)cc2)c1,"inconclusive: 35.5 µM [activator, single point]",
CCn1c(SCC(=O)c2cc(C)n(-c3ccc(C(=O)OC)cc3)c2C)nnc1-c1cccnc1,"inconclusive: 15.8 µM [inhibitor, single point]",
COc1ccc(NC(=S)Nc2cc(C)[nH]n2)cc1Cl,"inconclusive: 35.4 µM [inhibitor, single point]",
O=C(NCCCn1ccnc1)c1ccc(OCC(F)(F)F)cc1,inactive,
COC/C=C/C1=CC2=CC(=O)C(C)(OC(=O)c3cnc4ccccc4n3)C(=O)C2=CN1CCOC (stereo not given),"inconclusive: 1.58 µM [inhibitor, partial curve]",
CC(C)CCOc1ccc(C2=NNC(=O)CC2)cc1,inactive,
CC1(C)CC(=O)C=C(NNC(=O)c2ccccc2)C1,inactive,
CN(CC(=O)Nc1ccc([N+](=O)[O-])cc1Br)Cc1c(F)cccc1Cl,inactive,
COc1cccc(CNc2ccc3c(c2)CCC3)c1,"inconclusive: 14.1 µM [inhibitor, partial curve]",
Cc1ccc(NC(=S)Nc2cccc3cnccc23)c(C)c1,"inconclusive: 8.89 µM [inhibitor, partial curve]",

Compound,Potency,"activity, negative = inhibition"
COC(=O)C1=C(C(=O)OC)C(c2ccccc2O)c2sc(=O)[nH]c2S1 (stereo not given),"inconclusive: 14.1 µM [inhibitor, partial curve]",
CN(CC(=O)NC(=O)NCc1ccccc1)Cc1cccc(Cl)c1Cl,inactive,
CC1(c2ccc(Cl)cc2Cl)OCC(Cn2ccnc2)O1 (stereo not given),"inconclusive: 17.7 µM [inhibitor, single point]",
COCCn1cnc2c1c(=O)n(CC(=O)OCC#N)c(=O)n2Cc1ccccc1,inactive,
CC(=O)Nc1sc2c(c1C#N)CCN(Cc1ccccc1)C2,"inconclusive: 11.2 µM [inhibitor, partial curve]",
Cc1ccccc1NC(=S)c1nc2ccccc2[nH]1,"inconclusive: 8.89 µM [activator, partial curve]",
C=CCN1C(=O)CN=C1Nc1ccc(OC)cc1OC,"inconclusive: 15.8 µM [inhibitor, partial curve]",
Oc1ccc(N=Cc2ccc(-c3cccs3)s2)cc1,active: 3.54 µM,
Oc1ccc(/C=N/N=C/c2ccc(O)c(O)c2)cc1O,"inconclusive: 12.6 µM [inhibitor, partial curve]",
COc1ccccc1OCCOCCN1CCCC1,"inconclusive: 15.8 µM [inhibitor, partial curve]",
Cn1cnnc1SCC(=O)Nc1ccc2nc(SCc3ccccc3Cl)sc2c1,inactive,
CCOc1ccc(CN(C)CC(=O)NCc2ccc(F)cc2)cc1,inactive,
CCn1cc(SCC(=O)N2CCc3ccccc32)c2ccccc21,"inconclusive: 22.3 µM [inhibitor, single point]",
COCCNC(=O)CN(c1ccc(F)cc1)S(=O)(=O)c1ccc2c(c1)OCCO2,inactive,
O=C(c1ccc2nc(-c3ccco3)c(-c3ccco3)nc2c1)N1CCC2(CC1)OCCO2,active: 7.08 µM,
CCCCOCCCNCc1cccn1CCN1CCOCC1,"inconclusive: 15.8 µM [inhibitor, partial curve]",
Cc1cc2c3c([nH]c2cc1S(=O)(=O)N1CCC2(CC1)OCCO2)CC(C)(C)CC3=O,inactive,
Cc1nc(NC(=O)CN2CCN(c3cccc(Cl)c3)CC2)sc1C(=O)N(C)C,"inconclusive: 15.8 µM [inhibitor, partial curve]",
COc1cccc(OC)c1C(=O)N1CCN(Cc2cccnc2)CC1,"inconclusive: 28.2 µM [inhibitor, partial curve]",
CCN(C(=O)CN1C(=O)COc2ccc(S(=O)(=O)N3CCCCCC3)cc21)c1cccc(C)c1,inactive,
CCc1ccc(/C=N/Nc2nn[nH]n2)cc1,"inconclusive: 3.97 µM [inhibitor, partial curve]",
COc1ccc2nc(N3CCC(O)CC3)c(C#N)cc2c1,"inconclusive: 31.6 µM [inhibitor, single point]",
Cc1ccc(-c2cc(C(=O)Nc3nccs3)c3ccccc3n2)o1,inactive,
COc1cccc(C2NC(CCSC)(C(=O)O)C3C(=O)N(C(C)C)C(=O)C23)c1O (stereo not given),"inconclusive: 4.46 µM [inhibitor, partial curve]",
NC(=S)Nc1nc2ccccc2s1,active: 5.61 µM,

Compound,Potency,"activity, negative = inhibition"
Cc1ccc(C(C)C)c(OCCCCN2CCNCC2)c1,"inconclusive: 17.8 µM [inhibitor, partial curve]",
Cc1ccc(C(=O)NNC(=S)NC(=O)c2ccc(Cl)cc2Cl)cc1,"inconclusive: 15.8 µM [activator, partial curve]",
CC(=O)NC(=S)Nc1ccccc1C(=O)NC1CCCCC1,inactive,
CCc1c(C)c(C#N)c2[nH]c3ccccc3n2c1=S,"inconclusive: 15.8 µM [inhibitor, partial curve]",
NS(=O)(=O)c1ccc(Nc2ccc([N+](=O)[O-])c3nonc23)cc1,"inconclusive: 25.1 µM [inhibitor, partial curve]",
O=C(NCCCNCCCNC(=O)c1ccc(/C=N/O)nc1)c1ccc(/C=N/O)nc1,active: 3.97 µM,
O=C(O)c1ccc(S(=O)(=O)c2ccc3c(c2)C(=O)N(NC(=O)c2ccccc2)C3=O)cc1,"inconclusive: 17.7 µM [activator, partial curve]",
CC[n+]1c(/C=C(\C)SC)sc2ccccc21,"inconclusive: 17.7 µM [inhibitor, partial curve]",
C/C(CCC(C)C)=N\NC(=S)NCc1ccccc1,active: 15.8 µM,
N#Cc1c(NC(=O)c2ccccc2Cl)n(Cc2ccccc2)c2nc3ccccc3nc12,"inconclusive: 1.77 µM [inhibitor, full curve]",
Nc1nc(N)c(N=O)c(OCC2CCCCC2)n1,inactive,
O=c1c(-c2ccccc2)coc2cc(O)cc(O)c12,active: 19.9 µM,
CC1=CC(=O)C(C(C)C)=C/C1=N/OS(=O)(=O)c1ccccc1,active: 19.9 µM,
CC(C)(C)NCCOCCOc1ccccc1-c1ccccc1,"inconclusive: 17.7 µM [inhibitor, partial curve]",
Cc1nc2cnc(Oc3cccc(Cl)c3)nc2n(Cc2ccc(F)cc2)c1=O,inactive,
O=C(CN1CCOCC1)NNc1c2ccccc2nc2ccccc12,"inconclusive: 19.9 µM [inhibitor, single point]",
CC(=O)N1CC=C2C(C#N)=C(N)C(C#N)(C#N)[C@H](c3ccoc3)[C@H]2C1,"inconclusive: 31.6 µM [inhibitor, partial curve]",
CCCNC(=O)OC[C@H]1O[C@@H](CCO/N=C2/C[C@@H](O)[C@@H](O)[C@@H]3[C@@H]4C(=O)N(CC)C(=O)[C@H]4CC[C@@H]23)C=C[C@@H]1Oc1ccc(OC)cc1,,inactive: -0.545% [at 12.9 µM]
CC1(C)CC(=O)C2=C(C1)OC(N)=C(C#N)[C@@H]2c1ccccc1[N+](=O)[O-],"inconclusive: 15.8 µM [inhibitor, partial curve]",
COc1cc(/C=N/NC(=O)c2ccc(COc3cc(C)ccc3C(C)C)cc2)cc(OC)c1O,inactive,
Cc1cc(/C=C2\SC(=S)N(Cc3ccco3)C2=O)c(C)n1-c1cccnc1,inactive,
Cc1ccc(NC2=C(Cl)C(=O)c3ccccc3C2=O)cc1,"inconclusive: 1.58 µM [inhibitor, full curve, poor fit]",
CCN(CC)c1ccc(N=Cc2ccc(N(CC)CC)cc2O)cc1,"inconclusive: 1.26 µM [inhibitor, full curve]",
COc1cc(C2NC(C(=O)O)Cc3c2[nH]c2ccccc32)cc(OC)c1OC (stereo not given),"inconclusive: 35.4 µM [inhibitor, single point]",
CCOc1c(Cl)cc(CNc2ccc(N3CCCC3)cc2)cc1OC,"inconclusive: 7.92 µM [inhibitor, partial curve]",
